# Assay results reported in article PMC4336329 (PLoS ONE, 2015).
# The whole screen tested about 310,000 compounds, of which about 2,200 (0.71%) showed an effect of 50% or more. Effects have a minus sign here. The list shows a part of the results.
# Molecular target: human ether-à-go-go-related gene (hERG) potassium channel (human, UniProt Q12809)
# Experiment: primary screen, population patch clamp on CHO cells stably expressing hERG
# Sequence of human ether-à-go-go-related gene (hERG) potassium channel (Q12809 whole entry, looked up): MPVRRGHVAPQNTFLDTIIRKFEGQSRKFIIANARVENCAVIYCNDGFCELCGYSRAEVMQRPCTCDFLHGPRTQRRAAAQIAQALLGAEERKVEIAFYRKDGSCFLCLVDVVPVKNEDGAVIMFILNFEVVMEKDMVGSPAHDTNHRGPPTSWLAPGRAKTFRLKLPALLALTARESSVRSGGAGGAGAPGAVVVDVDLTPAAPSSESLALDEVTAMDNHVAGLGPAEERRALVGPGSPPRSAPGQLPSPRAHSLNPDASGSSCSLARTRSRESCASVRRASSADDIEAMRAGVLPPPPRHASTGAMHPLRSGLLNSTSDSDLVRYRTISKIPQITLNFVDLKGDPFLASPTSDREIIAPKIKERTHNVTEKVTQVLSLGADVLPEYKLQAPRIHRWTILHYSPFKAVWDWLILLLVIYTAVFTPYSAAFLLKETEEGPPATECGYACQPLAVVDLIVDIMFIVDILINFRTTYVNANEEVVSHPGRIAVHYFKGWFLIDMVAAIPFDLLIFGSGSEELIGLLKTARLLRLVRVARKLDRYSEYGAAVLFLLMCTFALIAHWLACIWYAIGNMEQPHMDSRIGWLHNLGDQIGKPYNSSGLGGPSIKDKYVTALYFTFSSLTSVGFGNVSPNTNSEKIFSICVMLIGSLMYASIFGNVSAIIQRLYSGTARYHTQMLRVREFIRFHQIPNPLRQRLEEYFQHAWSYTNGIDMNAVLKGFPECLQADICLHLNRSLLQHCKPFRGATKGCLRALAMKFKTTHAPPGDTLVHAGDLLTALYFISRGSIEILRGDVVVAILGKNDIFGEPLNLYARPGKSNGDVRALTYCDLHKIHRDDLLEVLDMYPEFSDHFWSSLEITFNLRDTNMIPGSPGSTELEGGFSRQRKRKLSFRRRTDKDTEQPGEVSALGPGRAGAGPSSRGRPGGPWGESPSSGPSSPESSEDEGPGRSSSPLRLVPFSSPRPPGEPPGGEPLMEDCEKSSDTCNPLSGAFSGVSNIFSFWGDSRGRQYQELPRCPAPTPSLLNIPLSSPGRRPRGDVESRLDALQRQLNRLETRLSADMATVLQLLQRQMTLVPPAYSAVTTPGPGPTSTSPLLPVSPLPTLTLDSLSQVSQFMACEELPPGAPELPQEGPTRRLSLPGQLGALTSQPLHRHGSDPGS
row,Compound,"hERG current change (%, negative = inhibition) at 1uM"
1,COc1ccc(OC)c(NC(=O)C23CCC(C)(C(=O)O2)C3(C)C)c1 (centres unmarked),4.98%
2,COc1ccc(-c2ccc3c(c2)S(=O)(=O)c2cccc(C(=O)O)c2C3=O)cc1OC,13.3%
3,Cc1ccc(Cl)cc1NC(=O)CCC(=O)NCc1ccco1,12%
4,Cc1c(C(=O)NCC(c2ccco2)N2CCCC2)oc2ccc(Cl)cc12 (centres unmarked),7.9%
5,Nc1nonc1-c1nc2ccccc2n1CC(=O)O,7.13%
6,CCOc1ccccc1OCCOCCN1CC(C)OC(C)C1 (centres unmarked),2.22%
7,CC(C)c1ccccc1N=C1SCCN1C1CCS(=O)(=O)C1 (centres unmarked),9.31%
8,Cc1ccc(NC(=O)c2c(-c3ccccc3Cl)noc2C)nc1,3.25%
9,Clc1ccc(-c2cn3cccnc3n2)cc1Cl,7.24%
10,N#Cc1ccccc1NC(=O)CSc1n[nH]c(-c2ccco2)n1,13.6%
11,O=C(NC(=S)N1CCCCC1c1cccnc1)c1ccccc1 (centres unmarked),7.46%
12,O=C(/C=C/C=C/c1ccccc1)CC1(O)C(=O)N(CCc2ccccc2)c2ccccc21 (centres unmarked),11%
13,O=C(Nc1ccc(F)cc1F)c1ccc2c(c1)[nH]c(=O)n2Cc1ccc(F)cc1,8.9%
14,CC(C)=CCCC(C)N(C=O)C(C)CCC=C(C)C (centres unmarked),2.21%
15,O=C(CSc1ccccn1)N/N=C/c1cc([N+](=O)[O-])ccc1O,21.6%
16,COc1cc(OC)nc(Oc2ccccc2C(=O)Oc2ccc(C)cc2)n1,-0.306%
17,COc1ccc(Cl)cc1NC(=O)Cn1c(=O)oc2ccccc21,10%
18,Cc1ccc(S(=O)(=O)NC(=O)c2ccccc2)cc1C(C)C,7.39%
19,CN(C)C(=O)C[n+]1cccc(/C=N/O)c1,11%
20,COc1cc(C(=O)NC(C)CCc2ccccc2)cc(OC)c1OC (centres unmarked),12.9%

row,Compound,"hERG current change (%, negative = inhibition) at 1uM"
1,COc1ccc(CN2CCNC(=O)C2CC(=O)NCCC2=CCCCC2)cc1OC (centres unmarked),16.1%
2,O=C(NCc1ccc2c(c1)CCO2)Nc1ccccc1,12.2%
3,CN1CCC(N(C)S(=O)(=O)c2ccc(NC(=O)c3cccc(C#N)c3)cc2)CC1,6.72%
4,Cc1ccccc1CN1CCSc2sccc2C1=O,9.98%
5,COc1ccc(CC(=O)N2CCN=C2SCc2cccc([N+](=O)[O-])c2)cc1,2.08%
6,CCCN1CC=C2C(C#N)=C(N)C(C#N)(C#N)C(c3cc(OC)ccc3OC)C2C1 (centres unmarked),-7.51%
7,Cc1ccccc1C(OCC(O)CN1CCC(C(N)=O)CC1)c1ccccc1 (centres unmarked),-12.5%
8,O=C(CCc1nnc(-c2ccc3c(c2)OCO3)o1)NCCc1ccccc1F,7.34%
9,COc1ccc(-c2cn3cc(C(=O)NN)ccc3n2)cc1,2.72%
10,COc1ccc(NC(=O)/C(C#N)=C\C=C\c2ccco2)cc1,12.5%
11,CCOC(=O)c1cc(-c2ccccc2)sc1NC(=O)C(C)Sc1nnc(N)s1 (centres unmarked),18.1%
12,Cc1ccc(N)cc1O,11.9%
13,O=C(CNC(=O)c1ccc(S(=O)(=O)N2CCCCC2)cc1)N/N=C/c1ccco1,14%
14,Cc1ccc(S(=O)(=O)Nc2nc3ccccc3nc2NCc2ccco2)cc1C,8.42%
15,CCN=c1sc(C(=O)NCCc2ccccc2)cc(=O)n1CC,9.48%
16,Cn1c(=O)c2c(nc(SCCCC#N)n2Cc2c(F)cccc2Cl)n(C)c1=O,-20%
17,COc1cccc2c(=O)c3ccoc3n(C)c12,5.12%
18,CC(C)=CCCC(C)CN1CCC(N2CCC(C(=O)N3CCCC3)CC2)CC1 (centres unmarked),3.15%
19,Cc1noc(C)c1S(=O)(=O)Nc1ccc(O)c2c(=O)cc(-c3ccccc3Cl)oc12,10.1%
20,CCNc1nc(NCC)n2c(SCC(=O)Nc3cccc(F)c3)nnc2n1,15.6%

row,Compound,"hERG current change (%, negative = inhibition) at 1uM"
1,CCOC(=O)c1cc2sccc2n1CC(=O)Nc1ccc(OC)cc1,11.9%
2,CCc1cccc2c(C(=S)N3CCOCC3)c[nH]c12,-1.08%
3,CC(=O)NCN1CCN(CNC(C)=O)CC1,6.72%
4,Cc1ccc(-c2ccnc3[nH]n(-c4ccccc4)c(=O)c23)cc1,13%
5,COc1cc(/C=N/NC(=O)C(C)Nc2n[nH]c(=O)[nH]c2=O)ccc1O (centres unmarked),13.8%
6,CCOc1ccc(NC(=O)CN2CCC(n3cnc4cc(F)ccc43)CC2)cc1,-71.7%
7,Nc1nc(N2C(=O)C3CC=CCC3C2=O)nn1-c1ccccc1 (centres unmarked),15.4%
8,COC(=O)CSc1nc2cc(Cl)ccc2c(=O)n1C1CCCC1,19.5%
9,COc1ccc2nc(NC(=O)C3CCCN3S(=O)(=O)c3ccc(C)cc3)sc2c1 (centres unmarked),7.53%
10,CC(C)c1nc(SCC(=O)Nc2ccc(N(C)C)cc2)c2ccccc2n1,6.72%
11,CCOC(=O)N1CCN(Cc2nc3cc([N+](=O)[O-])ccc3n2CC)CC1,-6.46%
12,COC(=O)/C(=C\c1c[nH]c2ccccc12)NC(C)=O,2.7%
13,CC(C)Oc1ccc(S(=O)(=O)N2CCCCC2)cc1NC(=O)C1=COCCO1,16.2%
14,O=C(N/N=C/c1cc(Br)c(Br)s1)c1ccncc1,6.46%
15,O=C(CSc1cccc[n+]1[O-])NC1CCCCCCC1,4.13%
16,CCOC(=O)c1oc2ccccc2c1NC(=O)c1cccc(OC)c1OC,-2.52%
17,COCCOC(=O)c1sc(=S)n(CCOC)c1N,0.714%
18,O=C(NC(=S)Nc1ccc(Cl)c(C(=O)O)c1)c1cccc(COc2ccccc2)c1,8.19%
19,Cc1ccccc1C1NC(=S)NC2=C1C(=O)CC(C)(C)C2 (centres unmarked),-0.209%
